Measured values as given in the supplement of paper PMC8728848.
The other results are listed elsewhere or left out.

Assays:
Experiment in all cases: glycan array binding signal (z-score within array); higher = stronger binding
Details in all cases: glycan notation: IUPAC condensed, linker removed
[1] = target: Fuc(a1-2)Gal
Method in brief: (§1)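 Arrays were curated from the Consortium for Functional Glycomics database, 3228 in total, and kept only where the protein sequence was available. Binding is expressed as a within-array Z-score. This score was averaged across arrays of the same protein sequence at different concentrations or buffers and across linkers, and negative values can be read as non-binding.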

[2] = target: Fuc(a1-2)Gal(b1-3)GalNAc
Method in brief: as §1

[3] = target: Fuc(a1-2)Gal(b1-3)GalNAc(b1-3)Gal
Method in brief: as §1

[4] = target: Fuc(a1-2)Gal(b1-3)GalNAc(b1-3)Gal(a1-4)Gal(b1-4)Glc
Method in brief: as §1

[5] = target: Fuc(a1-2)Gal(b1-3)GalNAc(b1-4)[Neu5Ac(a2-3)]Gal(b1-4)Glc
Method in brief: as §1

[6] = target: Fuc(a1-2)Gal(b1-3)GlcNAc
Method in brief: as §1

[7] = target: Fuc(a1-2)Gal(b1-3)GlcNAc(b1-3)Gal(b1-4)Glc
Method in brief: as §1

[8] = target: Fuc(a1-2)Gal(b1-3)[Fuc(a1-4)]GlcNAc
Method in brief: as §1

[9] = target: Fuc(a1-2)Gal(b1-4)Glc
Method in brief: as §1

[10] = target: Fuc(a1-2)Gal(b1-4)Glc6S
Method in brief: as §1

[11] = target: Fuc(a1-2)Gal(b1-4)GlcNAc
Method in brief: as §1

[12] = target: Fuc(a1-2)Gal(b1-4)GlcNAc(b1-2)Man(a1-3)[Fuc(a1-2)Gal(b1-4)GlcNAc(b1-2)Man(a1-6)]Man(b1-4)GlcNAc(b1-4)GlcNAc
Method in brief: as §1

[13] = target: Fuc(a1-2)Gal(b1-4)GlcNAc(b1-2)Man(a1-6)[Gal(b1-4)GlcNAc(b1-2)Man(a1-3)]Man(b1-4)GlcNAc(b1-4)GlcNAc
Method in brief: as §1

[14] = target: Fuc(a1-2)Gal(b1-4)GlcNAc(b1-3)Gal(b1-4)GlcNAc
Method in brief: as §1

[15] = target: Fuc(a1-2)Gal(b1-4)GlcNAc(b1-3)Gal(b1-4)GlcNAc(b1-3)Gal(b1-4)GlcNAc
Method in brief: as §1

[16] = target: Fuc(a1-2)Gal(b1-4)GlcNAc6S
Method in brief: as §1

[17] = target: Fuc(a1-2)Gal(b1-4)[Fuc(a1-3)]GlcNAc
Method in brief: as §1

[18] = target: Fuc(a1-2)Gal(b1-4)[Fuc(a1-3)]GlcNAc(b1-3)Gal(b1-4)[Fuc(a1-3)]GlcNAc
Method in brief: as §1

[19] = target: Fuc(a1-2)Gal(b1-4)[Fuc(a1-3)]GlcNAc(b1-3)Gal(b1-4)[Fuc(a1-3)]GlcNAc(b1-3)Gal(b1-4)[Fuc(a1-3)]GlcNAc
Method in brief: as §1

[20] = target: Fuc(a1-2)Gal6S(b1-4)Glc
Method in brief: as §1

[21] = target: Fuc(a1-2)Gal6S(b1-4)Glc6S
Method in brief: as §1

[22] = target: Fuc(a1-2)Gal6S(b1-4)GlcNAc
Method in brief: as §1

[23] = target: Fuc(a1-2)[Gal(a1-3)]Gal
Method in brief: as §1

[24] = target: Fuc(a1-2)[Gal(a1-3)]Gal(b1-3)GlcNAc
Method in brief: as §1

[25] = target: Fuc(a1-2)[Gal(a1-3)]Gal(b1-4)Glc
Method in brief: as §1

[26] = target: Fuc(a1-2)[Gal(a1-3)]Gal(b1-4)GlcNAc
Method in brief: as §1

[27] = target: Fuc(a1-2)[Gal(a1-3)]Gal(b1-4)[Fuc(a1-3)]GlcNAc
Method in brief: as §1

[28] = target: Fuc(a1-2)[Gal(a1-4)]Gal(b1-4)GlcNAc
Method in brief: as §1

[29] = target: Fuc(a1-2)[GalNAc(a1-3)]Gal
Method in brief: as §1

[30] = target: Fuc(a1-2)[GalNAc(a1-3)]Gal(b1-3)GlcNAc
Method in brief: as §1

B1: Mannose Binding Protein (Lactobacillus plantarum) (protein)
chain: AERSEAALTHVDKDNFLKYFSLNGSATYDAKTGIVTITPNQNNQVGNFSLTSKIDMNKSFTLTGQVNLGSNPNGADGIGFAFHSGNTTDVGNAGGNLGIGGLQDAIGFKLDTWFNSYQAPSSDKNGSEISSTNSNGFGWNGDSANAPYGTFVKTSNQEISTANGSKVQRWWAQDTGESQALSKADIDGNFHDFVVNYDGATRTLTVSYTQASGKVLTWKTTVASSYQAMAMVVSASTGAAKNLQQFKLTSFDFQEAATVNVKYVDTTGHQLAQG
For B1, the “glycan array binding signal (z-score)” value [1] was 0.211, the “glycan array binding signal (z-score)” value [2] was -0.606 and the “glycan array binding signal (z-score)” value [3] was -0.031. For the same binder, the “glycan array binding signal (z-score)” value [4] was -0.3, the “glycan array binding signal (z-score)” value [5] was -0.451 and the “glycan array binding signal (z-score)” value [6] was -0.034. The “glycan array binding signal (z-score)” value [7] was -0.532, the “glycan array binding signal (z-score)” value [8] was -0.167 and the “glycan array binding signal (z-score)” value [9] was -0.842. For the same binder, the “glycan array binding signal (z-score)” value [10] was 0.185, the “glycan array binding signal (z-score)” value [11] was -0.102 and the “glycan array binding signal (z-score)” value [12] was -0.383. For the same binder, the “glycan array binding signal (z-score)” value [13] was -0.749, the “glycan array binding signal (z-score)” value [14] was -0.358 and the “glycan array binding signal (z-score)” value [15] was -0.152. The “glycan array binding signal (z-score)” value [16] was 0.015, the “glycan array binding signal (z-score)” value [17] was -0.436 and the “glycan array binding signal (z-score)” value [18] was -0.572. The “glycan array binding signal (z-score)” value [19] was -0.302, the “glycan array binding signal (z-score)” value [20] was 0.044 and the “glycan array binding signal (z-score)” value [21] was 0.402. For the same binder, the “glycan array binding signal (z-score)” value [22] was 0.084, the “glycan array binding signal (z-score)” value [23] was -0.056 and the “glycan array binding signal (z-score)” value [24] was -0.696. The “glycan array binding signal (z-score)” value [25] was 0.274, the “glycan array binding signal (z-score)” value [26] was -0.689 and the “glycan array binding signal (z-score)” value [27] was 0.197. The “glycan array binding signal (z-score)” value [28] was -0.168, the “glycan array binding signal (z-score)” value [29] was -0.228 and the “glycan array binding signal (z-score)” value [30] was -0.252.
